First the molecules themselves.
T1: RBFOX1 RRM RbFoxmut (Fox-RRM*) (Homo sapiens, UniProt Q9NWB1 109-208, R118D;E147R;N151S;E152T)
T1 sequence: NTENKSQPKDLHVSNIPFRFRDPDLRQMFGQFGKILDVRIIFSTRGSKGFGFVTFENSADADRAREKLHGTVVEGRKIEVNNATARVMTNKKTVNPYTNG

B1: UCUGAUC (DNA:RNA)
RNA: GGGAGACCGGAAUUCAGAUUGUCCUCUGAUCUUAAAUCCCGUCGUAGCCACCA
DNA 1: CAATCTGAATTCCGGTCTCCC
DNA 2: TGGTGGCTACGACGGGATT
B2: CGCGAGU (DNA:RNA)
RNA: B1 RNA with U25C, C26G, U27C, U30G, C31U
DNA 1: CAATCTGAATTCCGGTCTCCC
DNA 2: TGGTGGCTACGACGGGATT
B3: AUGUAUG (DNA:RNA)
RNA: B1 RNA with U25A, C26U, U27G, G28U, C31G
DNA 1: CAATCTGAATTCCGGTCTCCC
DNA 2: TGGTGGCTACGACGGGATT
B4: GGAAGGU (DNA:RNA)
RNA: GGGAGACCGGAAUUCAGAUUGUCCGGAAGGUUUAAAUCCCGUCGUAGCCACCA
DNA 1: CAATCTGAATTCCGGTCTCCC
DNA 2: TGGTGGCTACGACGGGATT
B5: UGGAUUA (DNA:RNA)
RNA: B4 RNA with G25U, A27G, G29U, G30U, U31A
DNA 1: CAATCTGAATTCCGGTCTCCC
DNA 2: TGGTGGCTACGACGGGATT
B6: ACAGAUA (DNA:RNA)
RNA: B1 RNA with U25A, U27A, C31A
DNA 1: CAATCTGAATTCCGGTCTCCC
DNA 2: TGGTGGCTACGACGGGATT
B7: CGCAACG (DNA:RNA)
RNA: B4 RNA with G25C, A27C, G29A, G30C, U31G
DNA 1: CAATCTGAATTCCGGTCTCCC
DNA 2: TGGTGGCTACGACGGGATT
B8: UACUCAG (DNA:RNA)
RNA: B1 RNA with C26A, U27C, G28U, A29C, U30A, C31G
DNA 1: CAATCTGAATTCCGGTCTCCC
DNA 2: TGGTGGCTACGACGGGATT
B9: CUACCUC (DNA:RNA)
RNA: B1 RNA with U25C, C26U, U27A, G28C, A29C
DNA 1: CAATCTGAATTCCGGTCTCCC
DNA 2: TGGTGGCTACGACGGGATT
B10: UACUGAU (DNA:RNA)
RNA: B4 RNA with G25U, G26A, A27C, A28U, G30A
DNA 1: CAATCTGAATTCCGGTCTCCC
DNA 2: TGGTGGCTACGACGGGATT
B11: GAGCGGA (DNA:RNA)
RNA: B4 RNA with G26A, A27G, A28C, U31A
DNA 1: CAATCTGAATTCCGGTCTCCC
DNA 2: TGGTGGCTACGACGGGATT
B12: UUGAGUU (DNA:RNA)
RNA: B4 RNA with G25U, G26U, A27G, G30U
DNA 1: CAATCTGAATTCCGGTCTCCC
DNA 2: TGGTGGCTACGACGGGATT
B13: GGCGGCG (DNA:RNA)
RNA: B4 RNA with A27C, A28G, G30C, U31G
DNA 1: CAATCTGAATTCCGGTCTCCC
DNA 2: TGGTGGCTACGACGGGATT
B14: UAUACUC (DNA:RNA)
RNA: B1 RNA with C26A, G28A, A29C
DNA 1: CAATCTGAATTCCGGTCTCCC
DNA 2: TGGTGGCTACGACGGGATT
B15: ACGUGCA (DNA:RNA)
RNA: B4 RNA with G25A, G26C, A27G, A28U, G30C, U31A
DNA 1: CAATCTGAATTCCGGTCTCCC
DNA 2: TGGTGGCTACGACGGGATT
B16: CACGUAA (DNA:RNA)
RNA: B1 RNA with U25C, C26A, U27C, A29U, U30A, C31A
DNA 1: CAATCTGAATTCCGGTCTCCC
DNA 2: TGGTGGCTACGACGGGATT
B17: GAAGAGG (DNA:RNA)
RNA: B4 RNA with G26A, A28G, G29A, U31G
DNA 1: CAATCTGAATTCCGGTCTCCC
DNA 2: TGGTGGCTACGACGGGATT
B18: CUAAUGC (DNA:RNA)
RNA: B4 RNA with G25C, G26U, G29U, U31C
DNA 1: CAATCTGAATTCCGGTCTCCC
DNA 2: TGGTGGCTACGACGGGATT
B19: UAUCUAA (DNA:RNA)
RNA: B1 RNA with C26A, G28C, A29U, U30A, C31A
DNA 1: CAATCTGAATTCCGGTCTCCC
DNA 2: TGGTGGCTACGACGGGATT
B20: GUCCGGU (DNA:RNA)
RNA: B4 RNA with G26U, A27C, A28C
DNA 1: CAATCTGAATTCCGGTCTCCC
DNA 2: TGGTGGCTACGACGGGATT

Where a chain is given by its changes, count along the chain named. The list shows a part of the results.

This assay has as its target T1, RBFOX1 RRM RbFoxmut (Fox-RRM*). Description: EMSA; HiTS-Eq, 1 nM pool, 10 min; buffer printed only for the single-RNA assays: 10 mM Tris pH 7.5, 150 mM NaCl, 3.4 mM EDTA, 0.001% NP-40, 30 C. To be noted: tags: His6 N-terminal (pET28a); label: 5' 32P. The gist of the method: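 Purified RbFox RRM, wild type or mutant, was incubated for 10 min in 50 µL with 1 nM of a 5′-radiolabelled RNA pool carrying 7 randomized nucleotides, whose flanks were annealed to DNA oligonucleotides, over a series of increasing protein concentrations. Unbound RNA was resolved on 8% native PAGE, cut out, reverse-transcribed, barcoded by PCR and sequenced on an Illumina HiSeq 2500. Relative association constants were derived from changes in read counts for each RNA species versus the control reaction and normalised to the cognate motif.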
Background: In EMSA bound probe runs differently from free probe, usually more slowly.
On to B1, for which the binding signal is 0.0577 KA relative to UGCAUGU.
The figure for B2 is 0.115 KA relative to UGCAUGU; for B3 it is 1.19 KA relative to UGCAUGU; for B4 it is 0.0479 KA relative to UGCAUGU.
With B5, the binding signal was 0.106 KA relative to UGCAUGU.
The figure for B6 is 0.11 KA relative to UGCAUGU; for B7 it is 0.106 KA relative to UGCAUGU; for B8 it is 0.0688 KA relative to UGCAUGU.
The figure for B9 is 0.0669 KA relative to UGCAUGU; for B10 it is 0.0723 KA relative to UGCAUGU.
Consider B11, for which the binding signal was 0.0939 KA relative to UGCAUGU.
The same measure for B12: 0.122 KA relative to UGCAUGU; for B13: 0.123 KA relative to UGCAUGU.
The same measure for B14: 0.0468 KA relative to UGCAUGU; for B15: 0.199 KA relative to UGCAUGU.
The same measure for B16: 0.128 KA relative to UGCAUGU; for B17: 0.0495 KA relative to UGCAUGU.
On to B18, for which the binding signal is 0.0851 KA relative to UGCAUGU.
With B19, the binding signal is 0.0736 KA relative to UGCAUGU.
The figure for B20 is 0.132 KA relative to UGCAUGU.

For the origin of these results see article PMC9911399, “Two distinct binding modes provide the RNA-binding protein RbFox with extraordinary sequence specificity”.
